The campaign covered roughly 110,000 compounds. About 40 (0.04%) were called active. Inconclusive results, whose numbers are uncertain, are shown with a selection of clear calls. The call rests on the fitted dose curve; in most records, active means well fitted curve in the direction sought with a large enough effect in the signal ratio (not every such curve was filed as active); inconclusive means small, poorly fitted or top-dose-only effect, or a change in a side signal; inactive means flat fitted curve, though single readings scatter; the % refers to the signal ratio. Potencies beside an inconclusive call are fits to weak or partial responses and may not hold up.
Assay: IkB Signaling;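 on IkBa stabilization activation: 0% = basal untreated cells and 100% = reference inhibitor full response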
Conditions: ABC-DLBCL IkBa-CBG/CBR dual luciferase ratio (green luciferase fused to IkBa over red control in OCI-Ly3 lymphoma cells), 4 h; IkBa stabilization activation: at 57.1 µM (top of the series), scaled: untreated 0%, proteasome inhibitor 100% unless noted
In short: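 In this assay, an IκBα–CBG68 fusion accumulates when IKK-driven degradation is blocked; native CBR normalizes for cell number. OCI-Ly3 cells were treated 4 h with compound and doxycycline, then green and red light read after Chroma-Glo addition.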
With `CC(C)C[C@H](N)c1nnc(S(=O)(=O)Cc2ccc(F)cc2)o1` the Potency was inconclusive: 6.31 µM [signal inhibitor, single point].
In the case of `COc1ccc([C@@H](C)c2cc3c(cc2O)OCO3)cc1`, the IkBa stabilization activation is reported as inactive: 0.455% [at 11.4 µM, scaled: untreated 0%, proteasome inhibitor 100%].
For `COc1ccc(-c2cc(C(=O)Nc3cnn(Cc4ccccc4C)c3)no2)cc1OC`, the Potency was inconclusive: 10 µM [signal inhibitor, partial curve].
With `COc1cccc(CNC(=O)c2ccc3nc(-c4ccccc4)c(-c4ccccc4)nc3c2)c1OC` the IkBa stabilization activation was inconclusive: 0.0187% [signal inhibitor].
With `CCC1CCCCN1C(=O)CSc1nnc(-c2c[nH]c3ccccc23)o1` (stereo unspecified) the IkBa stabilization activation was inconclusive: 2.23% [signal inhibitor].
In the case of `Cc1cc(C)n(-c2nc3ccccc3n3nnnc23)n1`, the Potency is reported as inconclusive: 7.94 µM [signal inhibitor, partial curve].
In the case of `N#Cc1c(-c2ccco2)cc(-c2ccc(F)cc2)nc1N`, the IkBa stabilization activation is reported as “inactive”.
With `O=C1CN(C(=O)CCCc2c[nH]c3ccccc23)c2ccccc2N1` the IkBa stabilization activation was inconclusive: 7.78% [signal inhibitor].
In the case of `CCOC(=O)c1oc2ccccc2c1NC(=O)C1CCCCC1`, the IkBa stabilization activation is reported as “inactive”.
With `Cc1cccc(NC(=O)Cn2nnc(C(=O)NCc3cccs3)c2N)c1` the IkBa stabilization activation was “inactive”.
In the case of `NC(=O)c1c(NC(=O)c2cc(-c3ccc(F)cc3)on2)sc2c1CCCC2`, the IkBa stabilization activation is reported as “inactive”.
For `COc1ccc(Cl)cc1NC(=O)CCn1c(=O)c2cccn2c2ccccc21`, the IkBa stabilization activation was inconclusive: 1.89% [signal inhibitor].
For `Cc1ccc(NC(=O)c2c(C)nc3sc(C(=O)Nc4ccc(F)cc4)c(N)c3c2-c2ccc(Cl)cc2)c(C)c1`, the Potency was inconclusive: 5.01 µM [signal inhibitor].
For `Cc1cccc(CN2C(=O)c3ccccc3S(=O)(=O)c3ccc(C(=O)N(C)Cc4ccccc4)cc32)c1`, the IkBa stabilization activation was inconclusive: 0.813% [signal inhibitor].
With `OC(c1cccc(OCc2ccccc2)c1)c1nnc(-c2ccccc2)o1` (stereo unspecified) the IkBa stabilization activation was inconclusive: 1.85% [signal inhibitor].
With `Cc1ccc(Nc2c(-c3ccc(N4CCOCC4)cc3)nc3cccc(C)n23)cc1` the IkBa stabilization activation was inconclusive: -0.556% [signal inhibitor].
For `COc1cc2c(cc1OC)-c1cc(Nc3ccc4c(c3)OCCO4)nc(=O)n1CC2`, the IkBa stabilization activation was inconclusive: 2.63% [signal inhibitor].
In the case of `CCC1C(O)=C(c2ccccn2)C(=N)N1c1ccccc1` (stereo unspecified), the IkBa stabilization activation is reported as inconclusive: 12.8% [signal inhibitor].
With `COc1ccc(NC(=O)Nc2cccs2)cc1OC` the IkBa stabilization activation was “inactive”.
In the case of `CCOC(=O)c1ccc(NC2(c3ccccc3)C(=O)c3ccccc3C2=O)cc1`, the IkBa stabilization activation is reported as inconclusive: 0.876% [signal inhibitor].
In the case of `COc1cccc(Cn2c(Oc3cccc(C)c3)nc3c2c(=O)n(C)c(=O)n3C)c1`, the IkBa stabilization activation is reported as inconclusive: 2.33% [signal inhibitor].
With `CCOC(=O)c1ccc(NC(=O)c2sc3ccccc3c2Cl)cc1` the Potency was inconclusive: 3.16 µM [signal inhibitor, partial curve].
In the case of `Cc1ccc(-c2cc(-c3ccc(Cl)cc3)c(C#N)c(N)n2)o1`, the Potency is reported as inconclusive: 20 µM [signal inhibitor, partial curve].
For `COc1cccc(CNc2ncnc3onc(-c4ccc(F)cc4)c23)c1`, the IkBa stabilization activation was “inactive”.
With `O=c1c2ccccc2n(Cc2cccc(Cl)c2)c(=O)n1CCc1ccccc1` the IkBa stabilization activation was inconclusive: 2.55% [signal inhibitor].
For `CC(=O)NCCc1nc2ccccc2n1CCCCOc1ccc(Cl)cc1`, the IkBa stabilization activation was inconclusive: -1.22% [signal inhibitor].
In the case of `O=C(Nc1nnc(C2CC2)s1)c1cc(-c2ccccc2)nn1-c1ccccc1`, the IkBa stabilization activation is reported as inconclusive: 11.2% [signal inhibitor].
In the case of `Cc1ccc(C)c(N2CCN(c3ncnc4onc(C)c34)CC2)c1`, the IkBa stabilization activation is reported as inconclusive: -2.13% [signal inhibitor].
For `COc1ccccc1CCNC(=O)Cc1c(C)c2ccc(O)cc2oc1=O`, the IkBa stabilization activation was inconclusive: 0.394% [signal inhibitor].
For `CC(=O)Nc1nonc1-c1nnc(SCC(=O)Nc2cc(C)ccc2C)n1-c1ccccc1`, the IkBa stabilization activation was inconclusive: 1.01% [signal inhibitor].
For `Nc1nc(N)nc(-c2ccccn2)n1`, the IkBa stabilization activation was “inactive”.
In the case of `Cc1cccc(CC(=O)NC2CC(=O)N(c3cccc(F)c3)C2)c1` (stereo unspecified), the IkBa stabilization activation is reported as inconclusive: 0.342% [signal inhibitor].
In the case of `O=C(NC(Cc1ccccc1)c1nc2ccccc2[nH]1)C1CC(=O)N(c2ccc3c(c2)OCCO3)C1` (stereo unspecified), the IkBa stabilization activation is reported as inconclusive: 3.03% [signal inhibitor].
With `COc1ccc(OC)c(NC(=O)C2CCN(S(=O)(=O)c3ccc(C)cc3)CC2)c1` the IkBa stabilization activation was inconclusive: 7.53% [signal inhibitor].
For `COCCNC(=O)CSc1nc(-c2ccc(F)cc2)[nH]c1-c1ccc(Cl)cc1`, the IkBa stabilization activation was inconclusive: 15.9% [signal inhibitor].
With `Cc1cc(C)cc(OCC(=O)Nc2cccc(-c3nc4ncccc4o3)c2)c1` the IkBa stabilization activation was inconclusive: 7.06% [signal inhibitor].
For `Cc1occc1-c1nnc(SCC(=O)Nc2ccccc2-c2ccccc2)n1C`, the IkBa stabilization activation was “inactive”.
For `CCOc1ccc(C(=O)Nc2ccc(S(=O)(=O)N(Cc3ccccc3)c3ccccc3)cc2)cc1`, the IkBa stabilization activation was inconclusive: -1.04% [signal inhibitor].
For `O=C(c1ccco1)N1CCN(c2ncnc3sc4c(c23)CCC4)CC1`, the IkBa stabilization activation was inconclusive: 1.16% [signal inhibitor].
For `O=C(CSc1nc2cc3ccccc3cc2[nH]1)Nc1cccc(C(F)(F)F)c1`, the IkBa stabilization activation was inconclusive: 10.7% [signal inhibitor].
In the case of `CC(C)CCNC(=O)CN1C(=O)COc2ccc(S(=O)(=O)N3CCOCC3)cc21`, the IkBa stabilization activation is reported as “inactive”.
With `CN1/C(=C\C(=O)c2ccco2)C(C)(C)c2ccccc21` the IkBa stabilization activation was inconclusive: 2.17% [signal inhibitor].
For `CC(C)c1ccc(NC(=O)C2CCCN(S(=O)(=O)c3ccc(Br)s3)C2)cc1` (stereo unspecified), the IkBa stabilization activation was inconclusive: 0.644% [signal inhibitor].
In the case of `CCc1ccc(NS(=O)(=O)c2ccc3[nH]cc(C(=O)NC4CCCC4)c(=O)c3c2)cc1`, the IkBa stabilization activation is reported as inconclusive: 0.419% [signal inhibitor].
For `COc1ccc(-n2cc(-c3ccccc3)c3c(SC(C)C(C)=O)ncnc32)cc1` (stereo unspecified), the IkBa stabilization activation was inconclusive: 6.16% [signal inhibitor].
For `Cc1cccn2c(=O)c3cc(C(=O)N4CCN(C(=O)c5ccco5)CC4)n(C)c3nc12`, the IkBa stabilization activation was “inactive”.
In the case of `Fc1ccc(-c2cc(-c3nc(-c4cccc(Cl)c4)no3)[nH]n2)cc1`, the IkBa stabilization activation is reported as inconclusive: 7.35% [signal inhibitor].
In the case of `CCOC(=O)c1c(N)sc(C(=O)Nc2ccc3c(c2)OCO3)c1C`, the IkBa stabilization activation is reported as inconclusive: 2.64% [signal inhibitor].
With `COc1cc(OC)c(OC)cc1CN1CCc2nc(N3CCN(c4ncccn4)CC3)ncc2C1` the IkBa stabilization activation was inconclusive: 1.41% [signal inhibitor].
In the case of `CCN1CCN(C(=O)c2ccc3c(c2)N(Cc2cccc(Cl)c2)C(=O)c2ccccc2S3(=O)=O)CC1`, the IkBa stabilization activation is reported as inconclusive: 2.98% [signal inhibitor].
In the case of `COc1ccccc1CNC(=O)CSc1ncc2c(n1)-c1ccccc1N(Cc1ccc(C)cc1)S2(=O)=O`, the IkBa stabilization activation is reported as “inactive”.
In the case of `COc1ccc(-c2noc(C3CC(=O)N(c4ccc(C)c(F)c4)C3)n2)c(OC)c1` (stereo unspecified), the IkBa stabilization activation is reported as inconclusive: -0.617% [signal inhibitor].
In the case of `O=C(Nc1ccc(C(F)(F)F)cc1)C1CCCN1S(=O)(=O)c1cccc2cccnc12` (stereo unspecified), the IkBa stabilization activation is reported as inconclusive: 1.21% [signal inhibitor].
In the case of `CCC(=O)OCN1C(=O)C=CC1=O`, the IkBa stabilization activation is reported as inactive: 8.3% [at 11.4 µM, scaled: untreated 0%, proteasome inhibitor 100%].
For `Cc1cc(C)n(-c2nnc(C)n2/N=C/c2cc(Br)ccc2OCc2ccccc2)n1`, the IkBa stabilization activation was inconclusive: -5.31% [signal inhibitor].
In the case of `COc1ccc(-c2nnc(Nc3ccc(OCC(N)=O)cc3)c3ccccc23)cc1`, the IkBa stabilization activation is reported as inconclusive: 2.18% [signal inhibitor].
With `O=C(CSc1nc(=O)[nH]c2c1CCCC2)Nc1cc(C(F)(F)F)ccc1Cl` the IkBa stabilization activation was inconclusive: 5.23% [signal inhibitor].
With `COc1cc([C@H]2c3cc4c(cc3[C@@H](O)[C@@H]3COC(=O)[C@H]23)OCO4)cc(OC)c1OC` the IkBa stabilization activation was inconclusive: 14.8% [signal activator] [at 25.6 µM, scaled: untreated 0%, proteasome inhibitor 100%] and the Potency was inconclusive: 0.0398 µM [signal activator, full curve].
In the case of `Cc1cc(C)n(-c2nc3ccccc3nc2Nc2cccc(C(F)(F)F)c2)n1`, the Potency is reported as inconclusive: 31.6 µM [signal inhibitor, single point].
For `O=C1CCSC2(C(=O)N(Cc3ccc(F)cc3)c3ccccc32)N1c1ccccc1` (stereo unspecified), the IkBa stabilization activation was inconclusive: -2.48% [signal inhibitor].
With `CCc1nc(N)c(C#N)c(-c2ccc(O)c(OC)c2)c1C` the IkBa stabilization activation was “inactive”.
For `O=C(c1ccc(COc2ccccc2Cl)o1)N1CCN(Cc2ccc3c(c2)OCO3)CC1`, the IkBa stabilization activation was inconclusive: 0.812% [signal inhibitor].
In the case of `Cc1nc2cc(-c3cccc(F)c3)nn2c(C)c1CCC(=O)NC1CCCCC1`, the Potency is reported as inconclusive: 31.6 µM [signal inhibitor, partial curve].
With `C=CCSc1nc2c(c(=O)[nH]c(=O)n2C)n1Cc1ccc(C)cc1` the IkBa stabilization activation was “inactive”.
In the case of `O=C(c1cc(C(F)(F)F)cc(C(F)(F)F)c1)N1CCC2(CCN(Cc3ccccc3)CC2)CC1`, the IkBa stabilization activation is reported as inactive: 4.11% [at 11.4 µM, scaled: untreated 0%, proteasome inhibitor 100%].
Potency means the concentration at half of the fitted maximal effect.
